Measured values as given in the supplement of paper PMC8728848.
The other results are listed elsewhere or left out.

Assays:
Assay in all cases: glycan array binding signal (z-score within array); higher = stronger binding
Settings in all cases: glycan notation: IUPAC condensed, linker removed
[1] = target: Gal(b1-3)GlcNAc(b1-2)[Gal(b1-3)GlcNAc(b1-6)]Man(a1-6)[Gal(b1-3)GlcNAc(b1-2)Man(a1-3)]Man(b1-4)GlcNAc(b1-4)GlcNAc
Outline: (§1)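 The binding signal is a Z-score computed within each array. Data were drawn from 3228 arrays in the Consortium for Functional Glycomics database, restricted to those with a known protein sequence. Scores were averaged over arrays of the same protein sequence at different concentrations or buffers, and over linkers, and negative values can be taken as non-binding.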

[2] = target: Gal(b1-3)GlcNAc(b1-3)Gal(b1-3)GlcNAc
Outline: as §1

[3] = target: Gal(b1-3)GlcNAc(b1-3)Gal(b1-4)Glc
Outline: as §1

[4] = target: Gal(b1-3)GlcNAc(b1-3)Gal(b1-4)GlcNAc
Outline: as §1

[5] = target: Gal(b1-3)GlcNAc(b1-3)Gal(b1-4)GlcNAc(b1-2)Man(a1-3)[Gal(b1-3)GlcNAc(b1-3)Gal(b1-4)GlcNAc(b1-2)Man(a1-6)]Man(b1-4)GlcNAc(b1-4)GlcNAc
Outline: as §1

[6] = target: Gal(b1-3)GlcNAc(b1-3)Gal(b1-4)GlcNAc(b1-2)[Gal(b1-3)GlcNAc(b1-3)Gal(b1-4)GlcNAc(b1-6)]Man(a1-6)[Gal(b1-3)GlcNAc(b1-3)Gal(b1-4)GlcNAc(b1-2)Man(a1-3)]Man(b1-4)GlcNAc(b1-4)[Fuc(a1-6)]GlcNAc
Outline: as §1

[7] = target: Gal(b1-3)GlcNAc(b1-3)Gal(b1-4)GlcNAc(b1-3)Gal(b1-4)GlcNAc(b1-2)[Gal(b1-3)GlcNAc(b1-3)Gal(b1-4)GlcNAc(b1-3)Gal(b1-4)GlcNAc(b1-6)]Man(a1-6)[Gal(b1-3)GlcNAc(b1-3)Gal(b1-4)GlcNAc(b1-3)Gal(b1-4)GlcNAc(b1-2)Man(a1-3)]Man(b1-4)GlcNAc(b1-4)[Fuc(a1-6)]GlcNAc
Outline: as §1

[8] = target: Gal(b1-3)GlcNAc(b1-3)Gal(b1-4)GlcNAc(b1-6)[Gal(b1-3)GlcNAc(b1-3)]Gal(b1-4)Glc
Outline: as §1

[9] = target: Gal(b1-3)GlcNAc(b1-3)Gal(b1-4)[Fuc(a1-3)]GlcNAc
Outline: as §1

[10] = target: Gal(b1-3)GlcNAc(b1-3)Gal(b1-4)[Fuc(a1-3)]GlcNAc(b1-6)[Gal(b1-3)GlcNAc(b1-3)]Gal(b1-4)Glc
Outline: as §1

[11] = target: Gal(b1-3)GlcNAc(b1-3)GalNAc
Outline: as §1

[12] = target: Gal(b1-3)GlcNAc(b1-6)Gal(b1-4)GlcNAc
Outline: as §1

[13] = target: Gal(b1-3)GlcNAc(b1-6)GalNAc
Outline: as §1

[14] = target: Gal(b1-3)GlcNAc(b1-6)[Gal(b1-3)]GalNAc
Outline: as §1

[15] = target: Gal(b1-3)GlcNAc6S
Outline: as §1

[16] = target: Gal(b1-3)[Fuc(a1-4)]GlcNAc
Outline: as §1

[17] = target: Gal(b1-3)[Fuc(a1-4)]GlcNAc(b1-2)Man
Outline: as §1

[18] = target: Gal(b1-3)[Fuc(a1-4)]GlcNAc(b1-2)Man(a1-3)[Gal(b1-3)[Fuc(a1-4)]GlcNAc(b1-2)Man(a1-6)]Man(b1-4)GlcNAc(b1-4)GlcNAc
Outline: as §1

[19] = target: Gal(b1-3)[Fuc(a1-4)]GlcNAc(b1-2)Man(a1-3)[Gal(b1-3)[Fuc(a1-4)]GlcNAc(b1-2)Man(a1-6)]Man(b1-4)GlcNAc(b1-4)[Fuc(a1-6)]GlcNAc
Outline: as §1

[20] = target: Gal(b1-3)[Fuc(a1-4)]GlcNAc(b1-3)Gal(b1-3)[Fuc(a1-4)]GlcNAc
Outline: as §1

[21] = target: Gal(b1-3)[Fuc(a1-4)]GlcNAc(b1-3)Gal(b1-4)GlcNAc
Outline: as §1

[22] = target: Gal(b1-3)[Fuc(a1-4)]GlcNAc(b1-3)Gal(b1-4)[Fuc(a1-3)]GlcNAc
Outline: as §1

[23] = target: Gal(b1-3)[Fuc(a1-4)]GlcNAc(b1-6)GalNAc
Outline: as §1

[24] = target: Gal(b1-3)[GlcNAc(b1-6)]GalNAc
Outline: as §1

[25] = target: Gal(b1-3)[Neu5Ac(a2-6)]GalNAc
Outline: as §1

[26] = target: Gal(b1-3)[Neu5Ac(a2-6)]GlcNAc(b1-4)Gal(b1-4)Glc
Outline: as §1

[27] = target: Gal(b1-3)[Neu5Ac(a2-6)]GlcNAc(b1-6)Gal(b1-4)Glc
Outline: as §1

[28] = target: Gal(b1-3)[Neu5Ac(b2-6)]GalNAc
Outline: as §1

[29] = target: Gal(b1-4)Gal
Outline: as §1

[30] = target: Gal(b1-4)GalNAc(a1-3)[Fuc(a1-2)]Gal(b1-4)GlcNAc
Outline: as §1

[31] = target: Gal(b1-4)GalNAc(b1-3)[Fuc(a1-2)]Gal(b1-4)GlcNAc
Outline: as §1

[32] = target: Gal(b1-4)Glc
Outline: as §1

[33] = target: Gal(b1-4)Glc6S
Outline: as §1

[34] = target: Gal(b1-4)GlcNAc
Outline: as §1

[35] = target: Gal(b1-4)GlcNAc(a1-6)Gal(b1-4)GlcNAc
Outline: as §1

[36] = target: Gal(b1-4)GlcNAc(b1-2)Man
Outline: as §1

[37] = target: Gal(b1-4)GlcNAc(b1-2)Man(a1-3)Man(b1-4)GlcNAc(b1-4)GlcNAc
Outline: as §1

[38] = target: Gal(b1-4)GlcNAc(b1-2)Man(a1-3)[Gal(b1-4)GlcNAc(b1-2)Man(a1-6)]Man(b1-4)GlcNAc(b1-4)GlcNAc
Outline: as §1

[39] = target: Gal(b1-4)GlcNAc(b1-2)Man(a1-3)[Gal(b1-4)GlcNAc(b1-2)Man(a1-6)]Man(b1-4)GlcNAc(b1-4)[Fuc(a1-6)]GlcNAc
Outline: as §1

[40] = target: Gal(b1-4)GlcNAc(b1-2)Man(a1-3)[Gal(b1-4)GlcNAc(b1-2)Man(a1-6)][Gal(b1-4)GlcNAc(b1-4)]Man(b1-4)GlcNAc(b1-4)[Fuc(a1-6)]GlcNAc
Outline: as §1

[41] = target: Gal(b1-4)GlcNAc(b1-2)Man(a1-3)[Gal(b1-4)GlcNAc(b1-2)Man(a1-6)][GlcNAc(b1-4)]Man(b1-4)GlcNAc(b1-4)[Fuc(a1-6)]GlcNAc
Outline: as §1

[42] = target: Gal(b1-4)GlcNAc(b1-2)Man(a1-3)[Gal(b1-4)GlcNAc(b1-2)][GlcNAc(b1-4)]Man(b1-4)GlcNAc(b1-4)GlcNAc
Outline: as §1

[43] = target: Gal(b1-4)GlcNAc(b1-2)Man(a1-3)[GlcNAc(b1-2)Man(a1-6)]Man(b1-4)GlcNAc(b1-4)GlcNAc
Outline: as §1

[44] = target: Gal(b1-4)GlcNAc(b1-2)Man(a1-3)[GlcNAc(b1-4)][Gal(b1-4)GlcNAc(b1-2)Man(a1-6)]Man(b1-4)GlcNAc(b1-4)GlcNAc
Outline: as §1

[45] = target: Gal(b1-4)GlcNAc(b1-2)Man(a1-3)[Man(a1-6)]Man(b1-4)GlcNAc(b1-4)GlcNAc
Outline: as §1

B1: HPA (Helix pomatia), Q575S3 (protein)
chain: MWAHLTGLLLICALSLSAAQRAQTGEIDCGSDSSWPKDPSDNPNRDNTREIVKHVTFSPQFCREPKVILSVTTLDAEHTKNLRYEARLKSVSPSGLSASCYSWHDGTIYRMKLSWLAVED
glycan array binding signal (z-score) [1]: -0.242
glycan array binding signal (z-score) [2]: -0.268
glycan array binding signal (z-score) [3]: -0.266
glycan array binding signal (z-score) [4]: -0.268
glycan array binding signal (z-score) [5]: -0.257
glycan array binding signal (z-score) [6]: -0.231
glycan array binding signal (z-score) [7]: -0.232
glycan array binding signal (z-score) [8]: -0.246
glycan array binding signal (z-score) [9]: -0.26
glycan array binding signal (z-score) [10]: -0.24
glycan array binding signal (z-score) [11]: -0.248
glycan array binding signal (z-score) [12]: -0.247
glycan array binding signal (z-score) [13]: -0.246
glycan array binding signal (z-score) [14]: -0.252
glycan array binding signal (z-score) [15]: -0.263
glycan array binding signal (z-score) [16]: -0.261
glycan array binding signal (z-score) [17]: -0.231
glycan array binding signal (z-score) [18]: -0.139
glycan array binding signal (z-score) [19]: -0.227
glycan array binding signal (z-score) [20]: -0.27
glycan array binding signal (z-score) [21]: -0.275
glycan array binding signal (z-score) [22]: -0.266
glycan array binding signal (z-score) [23]: -0.238
glycan array binding signal (z-score) [24]: -0.265
glycan array binding signal (z-score) [25]: -0.264
glycan array binding signal (z-score) [26]: -0.258
glycan array binding signal (z-score) [27]: -0.278
glycan array binding signal (z-score) [28]: -0.268
glycan array binding signal (z-score) [29]: -0.238
glycan array binding signal (z-score) [30]: -0.268
glycan array binding signal (z-score) [31]: -0.27
glycan array binding signal (z-score) [32]: -0.264
glycan array binding signal (z-score) [33]: -0.26
glycan array binding signal (z-score) [34]: -0.263
glycan array binding signal (z-score) [35]: -0.269
glycan array binding signal (z-score) [36]: -0.247
glycan array binding signal (z-score) [37]: -0.272
glycan array binding signal (z-score) [38]: -0.282
glycan array binding signal (z-score) [39]: -0.249
glycan array binding signal (z-score) [40]: -0.265
glycan array binding signal (z-score) [41]: -0.261
glycan array binding signal (z-score) [42]: -0.232
glycan array binding signal (z-score) [43]: -0.111
glycan array binding signal (z-score) [44]: -0.254
glycan array binding signal (z-score) [45]: -0.268
